# Reference: the supplement of paper PMC10126150
# Sequences with one replicate were seen in a single cluster, so their values are uncertain.
# Test system: ATP
# Assay: switch fluorescence ratio, 500 uM ATP over buffer (Cy3 cluster intensity, sum of 5 cycles each) (fold (ratio)); higher = stronger signal-on switching upon ATP binding; sequences stand for … in TCGTCGGCAGCGTCAGATGTGTATAAGAGACAGTTTTTTTTTTTTTTTTTTTTTTTTT…TC
# Settings: aptamer strand: ATP DNA aptamer (quencher-CACCTGGGGGAGTATTGCGGAGGAAGG + anchor), 100 nM annealed; ATP concentration: 500 uM; one replicate
# Method in brief: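 Exposure to 500 uM ATP lasted 15 min at 22 °C before imaging, and a selection-buffer image was taken beforehand, for Cy3-labelled switching-strand clusters on a modified Illumina MiSeq flow-cell annealed to 100 nM quencher-labelled ATP aptamer. Five buffer/ATP cycles were run with NaOH stripping and re-annealing between them. The fluorescence ratio per cluster is summed target-cycle over summed buffer-cycle Cy3 intensity, averaged per switch-domain sequence. Clusters outside 100-1000 RFU were excluded.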
row,Sequence,switch fluorescence ratio
1,GCTTCTTTCC,1.14
2,AGGGACCGCT,1.03
3,CTAGAACGAA,1
4,TGACCTCATT,1.05
5,TATCAAGCAT,1.02
6,TATCCGGGGC,1.04
7,AAAACGCCGT,1.01
8,ACAGGAACCG,1.02
9,GGCATATTTT,0.976
10,CCAAACGTTG,0.983
11,AAGGAAAAGA,1.01
12,TAGTAGCTCC,1.2
13,ACCCGACGAA,1.48
14,TGAGAAGCAT,1
15,TACACTTCAA,1
16,GCTACACTAT,1.08
17,TGTTGTTTCC,1.01
18,ACCCTACCAC,1.38
19,AACGTGACTC,1.42
20,AACAAGTCCA,1.01
21,AAACGTGTTT,1.01
22,GTGTTACTGC,1.02
23,GTCTAACA,0.962
24,CACCTGTAGT,1.02
25,GACCCCACTG,1.08
26,CATTATGCGC,0.995

row,Sequence,switch fluorescence ratio
1,CCGTACTGGG,1.07
2,TAGGATGGAA,0.969
3,GATAACAAAC,1.45
4,GTTGGTTCGC,0.974
5,CGGGTAGAGC,1.01
6,AGGACACCGT,1.02
7,CGGTCGGCGG,0.962
8,CTTCTTGGAA,1.01
9,GGTTCGGGCC,1.01
10,GGAGTGTTGT,0.964
11,TCTATAAAAT,1.01
12,AACGTTCCGG,1.02
13,TGGTCTCGTA,1.02
14,GCGTGGTAGG,1.03
15,CATACCAATT,1.07
16,TTTTACCAGG,1.27
17,CATGGAACC,1.01
18,CGTTAGAACA,1.01
19,CAACGCCCGA,1.17
20,AGTTAGTTTA,0.999
21,TCTAACTAC,1.04
22,CGGGTAGAC,1.09
23,CAGGCTCGAG,0.974
24,AAGACAGGCG,1.07
25,CCATCCGGTT,1.24
26,GGATGCACGA,0.989

row,Sequence,switch fluorescence ratio
1,TAACATGCCT,1.06
2,TCAATATATT,0.977
3,GCAATTTTC,1.29
4,TGAGCGGACT,1.07
5,TGATACAGGG,0.998
6,TTCTCTAGCA,1.4
7,TAAACTGGAG,0.961
8,CTCGTGCTAG,0.974
9,TCCAATTAGC,1.04
10,AACCGCTCCC,1.52
11,AGGGGTCAGC,0.946
12,TTGGACAGCT,1.01
13,GGCCTGACTC,1.96
14,ATGTCTGAGG,0.987
15,TTGCATTTAC,1.83
16,TATTTGAGAT,0.998
17,TAAAGTCGT,0.974
18,GGCATGTTCT,0.998
19,GAGCGGTCTA,0.956
20,ACGCCCGTGC,1.1
21,AATGGACTGC,1.11
22,CTTAGGAGAA,1.01
23,TCTCTAAGGG,0.978
24,GCATGCTGCG,1.01
25,GCTGGCAACT,0.963
26,GCCGGTTCCT,1.03

row,Sequence,switch fluorescence ratio
1,GGTCGTTCA,0.989
2,GTACCATCAT,1.02
3,TAGCCAAAGC,1.01
4,ACTCGCGCTA,3.7
5,TAGTAAGAAG,0.996
6,GCTGTGGGAA,1.03
7,GCCCGGAATT,1.12
8,GTTGGGATCG,0.968
9,CTTGAGAAGT,1.01
10,TCCTAGAAAA,1.08
11,CGCCACCTGA,1.07
12,GGGGTAGCCA,0.978
13,TGCCCTTAGT,1.02
14,TTATGTGTGA,0.991
15,TAATGGTAGC,0.938
16,AAGACGTGTT,0.971
17,TTCCACGTTG,1.02
18,AATGCTTGAT,1.02
19,CTTAAAGTAG,0.964
20,ATAGCAGGAT,1.05
21,TTGCCTGGTT,1.03
22,ACCTAGGATT,1.04
23,GTAGTAAGGA,1.27
